In publication PMC1800349:
These are yes or no findings as the source states them, for the method shown. Binding seen in cells or lysates may run through a third protein. Some results given as binding are weak or reduced against the parent protein; the word gives no strength. For part of these data: Tags and fused reporters may be left off the sequences shown.

Assays:
Pafah1b3-MYC (mouse) = molecular target: T1, Pafah1b3-MYC (mouse) (UniProt Q61205); assay: co-IP; proteins co-expressed in transfected 293T cells; lysis in PBS, 5 mM EDTA, 1% Triton X-100, pH 7.4; antibodies against the tags 1-2 hours at 4°C, protein A/G agarose beads; Western blot (Fig. 1A, 1C, 2; the text says COS7 for Fig. 2)
T1 sequence: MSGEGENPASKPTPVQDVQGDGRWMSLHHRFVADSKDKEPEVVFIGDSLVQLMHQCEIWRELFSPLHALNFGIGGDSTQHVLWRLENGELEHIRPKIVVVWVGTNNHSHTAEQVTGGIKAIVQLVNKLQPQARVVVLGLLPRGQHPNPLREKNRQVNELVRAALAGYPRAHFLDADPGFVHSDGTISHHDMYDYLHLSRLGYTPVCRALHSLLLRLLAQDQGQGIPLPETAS

FLAG-Pafah1b2 (mouse) = molecular target: T2, FLAG-Pafah1b2 (mouse) (UniProt Q61206); assay: as above
T2 sequence: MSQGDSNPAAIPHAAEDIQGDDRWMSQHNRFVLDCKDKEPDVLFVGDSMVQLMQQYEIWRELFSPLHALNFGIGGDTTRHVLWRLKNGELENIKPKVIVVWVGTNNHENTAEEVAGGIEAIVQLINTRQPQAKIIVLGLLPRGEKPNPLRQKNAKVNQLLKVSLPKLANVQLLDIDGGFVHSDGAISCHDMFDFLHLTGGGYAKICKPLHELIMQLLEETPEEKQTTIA

[1] = molecular target: T3, Pafah1b2, in vitro translated (mouse) (UniProt Q61206); assay: co-IP; proteins translated in vitro (TNT), 35S-labelled, combined and immunoprecipitated with FLAG antibody (Fig. 1B) or antibodies against Dab1, Pafah1b2 or Pafah1b3 (Fig. 1D); autoradiography
T3 sequence (chain, 35S-labeled methionine): T2 sequence

[2] = molecular target: T4, Pafah1b3, in vitro translated (mouse) (UniProt Q61205); assay: as above
T4 sequence (chain, 35S-labeled methionine): T1 sequence

[3] = molecular target: T5, FLAG-tagged Lis1, in vitro translated (mouse) (UniProt P63005); assay: as above
T5 sequence (chain, 35S-labeled methionine): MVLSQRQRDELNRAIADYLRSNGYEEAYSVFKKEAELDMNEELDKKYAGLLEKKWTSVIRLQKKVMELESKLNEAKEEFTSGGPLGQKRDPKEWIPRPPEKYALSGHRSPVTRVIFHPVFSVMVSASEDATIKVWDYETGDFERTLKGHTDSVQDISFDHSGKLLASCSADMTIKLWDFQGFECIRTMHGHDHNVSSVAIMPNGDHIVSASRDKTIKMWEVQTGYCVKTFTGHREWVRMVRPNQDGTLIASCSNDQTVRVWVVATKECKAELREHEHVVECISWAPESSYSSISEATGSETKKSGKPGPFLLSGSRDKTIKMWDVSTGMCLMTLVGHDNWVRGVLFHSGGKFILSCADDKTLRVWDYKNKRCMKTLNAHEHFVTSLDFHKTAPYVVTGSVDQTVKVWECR

[4] = molecular target: in vitro-translated VLDLR (human) (UniProt P98155); assay: co-IP; competition: in vitro translated (TNT), 35S-labelled proteins; equal amounts (50 μl) of VLDLR and one partner with increasing amounts of the competitor; immunoprecipitated with polyclonal antibodies against VLDLR; autoradiography
HA-tagged VLDLR (human) = HA-tagged VLDLR (human) (UniProt P98155); assay: co-IP; proteins co-expressed in transfected 293T cells; lysis in PBS, 5 mM EDTA, 1% Triton X-100, pH 7.4; antibodies against the tags 1-2 hours at 4°C, protein A/G agarose beads; Western blot (Fig. 1A, 1C, 2; the text says COS7 for Fig. 2)
[5] = molecular target: VLDLR-GFP fusion protein (human) (UniProt P98155); assay: as above

Question: For “HA-tagged VLDLR (from UniProt P98155-1 28-873) (receptor)”, which binding (Pafah1b3-MYC (mouse)) is on record?
Answer: The binding was “binds”.

Question: For “VLDLR(AAxA)-GFP (from UniProt P98155-1 28-873) (receptor)”, which binding (Pafah1b3-MYC (mouse)) is on record?
Answer: The binding was “no binding”.

Question: What about the binding (FLAG-Pafah1b2 (mouse)) of the same molecule?
Answer: Its binding is “no binding”.

Question: With “VLDLR-GFP fusion protein (from UniProt P98155-1 28-873) (receptor)” as the molecule, how does the binding (Pafah1b3-MYC (mouse)) read?
Answer: Its binding is “binds”.

Question: And the binding (FLAG-Pafah1b2 (mouse))?
Answer: Its binding is “binds”.

Question: With “VLDLRΔ809-GFP (from UniProt P98155-1 28-809) (domain or fragment)” as the molecule, how does the binding (Pafah1b3-MYC (mouse)) read?
Answer: The binding was “no binding”.

Question: And the binding (FLAG-Pafah1b2 (mouse))?
Answer: The binding was “no binding”.

Question: “VLDLRΔ825-GFP (from UniProt P98155-1 28-825) (domain or fragment)” was tested. Which binding (Pafah1b3-MYC (mouse)) did it give?
Answer: Its binding is “no binding”.

Question: What about the binding (FLAG-Pafah1b2 (mouse)) of the same molecule?
Answer: Its binding is “no binding”.

Question: For “VLDLRΔ855-GFP (from UniProt P98155-1 28-855) (domain or fragment)”, which binding (Pafah1b3-MYC (mouse)) is on record?
Answer: Its binding is “binds”.

Question: What about the binding (FLAG-Pafah1b2 (mouse)) of the same molecule?
Answer: Its binding is “binds”.

Question: With “in vitro-translated VLDLR (from UniProt P98155-1 1-873) (receptor)” as the molecule, how does the binding [1] read?
Answer: The binding was “binds”.

Question: What about the binding [2] of the same molecule?
Answer: The binding was “binds”.

Question: And the binding [3]?
Answer: Its binding is “no binding”.

B1: Pafah1b3, in vitro translated (protein, UniProt Q61205 1-232)
chain: T1 sequence
modifications: 35S-labeled methionine
Question: With B1 as the molecule, how does the binding [4] read?
Answer: The binding was “binds”.

B2: Dab1, in vitro translated (protein, UniProt P97318-2 1-555)
chain: MSTETELQVAVKTSAKKDSRKKGQDRSEATLIKRFKGEGVRYKAKLIGIDEVSAARGDKLCQDSMMKLKGVVAGARSKGEHKQKIFLTISFGGIKIFDEKTGALQHHHAVHEISYIAKDITDHRAFGYVCGKEGNHRFVAIKTAQAAEPVILDLRDLFQLIYELKQREELEKKAQKDKQCEQAVYQTILEEDVEDPVYQYIVFEAGHEPIRDPETEENIYQVPTSQKKEGVYDVPKSQPVSAVTQLELFGDMSTPPDITSPPTPATPGDAFLPSSSQTLPGSADVFGSMSFGTAAVPSGYVAMGAVLPSFWGQQPLVQQQIAMGAQPPVAQVIPGAQPIAWGQPGLFPATQQAWPTVAGQFPPAAFMPTQTVMPLAAAMFQGPLTPLATVPGTNDSARSSPQSDKPRQKMGKESFKDFQMVQPPPVPSRKPDQPSLTCTSEAFSSYFNKVGVAQDTDDCDDFDISQLNLTPVTSTTPSTNSPPTPAPRQSSPSKSSASHVSDPTADDIFEEGFESPSKSEEQEAPDGSQASSTSDPFGEPSGEPSGDNISPQDGS
modifications: 35S-labeled methionine
Question: With B2 as the molecule, how does the binding [4] read?
Answer: The binding was “binds”.

B3: Pafah1b3-MYC (protein, UniProt Q61205 1-232)
chain: T1 sequence
Question: With B3 as the molecule, how does the binding (HA-tagged VLDLR (human)) read?
Answer: The binding was “binds”.

Question: What about the binding [5] of the same molecule?
Answer: The binding was “binds”.
